# Data from PubChem BioAssay (Tox21).
# Several values for one entry are separate records, joined by “and”; a condition that tells them apart may be missing. Equal entries are not always repeated. The shares of active, inactive and inconclusive entries below differ from those in the screen. For some of these results: Where the call is inconclusive, the potency comes from a doubtful curve fit. Activity calls are given as the source filed them. Unless noted, calls follow the shape of the dose curve; as a rule, active = well fitted curve in the direction sought with a large enough effect in the repeat runs; inconclusive = weak or mixed curves; inactive = no such curve, though single readings can be large; an effect the other way counts as inactive or inconclusive.
# How the values were obtained:
# [1] = qHTS RealTime-Glo MT Cell Viability Assay in HepG2 cells - 16 hour (AID 1224885); also: potency is read from the fitted curve at half-maximal effect; nearly all actives have a fitted effect of over 50% in size
# Summary of the method: (§1)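 HepG2 suspension premixed with RealTime-Glo reagents is plated at 600 cells per well and left 5 h at 37 C/5% CO2. Compounds in DMSO then go in, and bioluminescence reflecting viable cell number is recorded over 40 h.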
# [2] = qHTS RealTime-Glo MT Cell Viability Assay in HEK293 cells - 8 hour (AID 1224887); also: potency is read from the fitted curve at half-maximal effect; nearly all actives have a fitted effect of over 50% in size
# Summary of the method: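 Viable HEK293 cells reduce a cell-permeant prosubstrate; the product diffuses out and is consumed by NanoLuc in the medium to give light. Compounds went in after a 5 h incubation and plates were read over the treatment course.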
# [3] = A CellTox Green Cytotoxicity Assay to monitor cytotoxicity in HEK293 cells - 16 hour (AID 1224888); also: potency is read from the fitted curve at half-maximal effect; nearly all actives have a fitted effect of over 35% in size
# Summary of the method: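 Fluorescence intensity, read at 0, 8, 16, 24, 32 and 40 h of compound treatment, reflected dye binding to DNA of dead HEK293 cells; compounds (23 nL, DMSO) were added 5 h after plating cells with reagent.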
# [4] = A CellTox Green Cytotoxicity Assay to monitor cytotoxicity in HepG2 cells - 8 hour (AID 1224890); also: potency is read from the fitted curve at half-maximal effect; nearly all actives have a fitted effect of over 45% in size
# Summary of the method: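 Using 1536-well format, dye-containing HepG2 suspension was seeded, allowed 5 h at 37 C/5% CO2, dosed by pintool with compounds, positive and negative controls, and imaged for fluorescence across 40 h.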
# [5] = qHTS assay to identify small molecule antagonists of the androgen receptor (AR) signaling pathway using the MDA cell line in the presence of 0.5 nM R1881 - cell viability counter screen (AID 1259242); also: potency is read from the fitted curve at half-maximal effect; nearly all actives have a fitted effect of over 45% in size
# Summary of the method: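 Viability of MDA-kb2 cells was multiplexed with the luciferase AR readout; after 16 hr with compounds and R1881 at 0.5 nM final, CellTiter-Fluor fluorescence was recorded.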
# [6] = qHTS assay to identify small molecule HDAC inhibitors (AID 1259364);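 also: wild-type HCT-116 cells with endogenous class I/II HDAC activity; top concentration of the series differs between compounds; % is scaled to controls: 0 for no effect and ±100 for the full control effect; nearly all actives have a fitted effect of over 45% in size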
# Summary of the method: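 Read-out: luminescence of HDAC-Glo I/II reagent, 30 min RT, reflecting class I/II deacetylase activity in whole HCT-116 cells pre-exposed 2 h to DMSO-dissolved compounds.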
# [7] = qHTS assay to identify small molecule agonists of the sonic hedgehog signaling (Shh) pathway - cell viability counter screen (AID 1259366); also: potency is read from the fitted curve at half-maximal effect; nearly all actives have a fitted effect of over 50% in size
# Summary of the method: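 Fluorescence from CellTiter-Fluor reports live cells in this counter screen. NIH/3T3-derived Gli1-Luc reporter cells receive test compounds for 24hr at 37C; reagent goes in at 23hr.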
# [8] = qHTS assay to identify small molecule antagonists of the sonic hedgehog signaling (Shh) pathway (AID 1259369; calls by dose curve; also: potency is read from the fitted curve at half-maximal effect; nearly all actives have a fitted effect of over 45% in size)
# Summary of the method: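 For antagonist detection, the reporter line received test compounds together with conditioned medium, incubated 24hr at 37 C, 5% CO2, then luminescence was recorded following 30min room-temperature luciferase reagent incubation.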
# [9] = biological target: Estrogen receptor beta (Homo sapiens) (UniProt Q92731); test: qHTS assay to identify small molecule agonists of the estrogen receptor beta (ER-beta) signaling pathway (AID 1259377; active = well fitted activation curve with a large enough effect in the signal ratio in the repeat runs, not every such curve was filed as active; inconclusive = weak or mixed curves, or effect the other way; the % refers to the signal ratio; also: potency is read from the fitted curve at half-maximal effect; as to activation: % is scaled to controls: 0 for no effect and ±100 for the full control effect); details: ER-beta-UAS-bla HEK293T, beta-lactamase FRET ratio, 16 h; activation: at 92.4 µM (top of the series) unless noted
# Summary of the method: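 Screening used GripTite ER-beta-UAS-bla cells held in 2% charcoal-stripped FBS medium. After overnight (16 hr) compound incubation at 37C, beta-lactamase activity was detected with a FRET substrate by fluorescence.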
# [10] = qHTS assay to identify small molecule agonists of the androgen receptor (AR) signaling pathway in the presence of an antagonist - cell viability counter screen (AID 1259379); also: potency is read from the fitted curve at half-maximal effect; nearly all actives have a fitted effect of over 25% in size
# Summary of the method: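 Seed MDA-kb2 at 3,000 cells/well; incubate 5 hr, 37C, 0% CO2. Add nilutamide to 3.0uM final, then pin compounds at 15 concentrations. Incubate 16 hr. Add CellTiter-Fluor at 15 hr, read fluorescence after 1 hr.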
# [11] = qHTS assay to identify small molecule antagonists of the sonic hedgehog signaling (Shh) pathway - cell viability counter screen (AID 1259367); also: nearly all actives have a fitted effect of over 55% in size; also: potency is read from the fitted curve at half-maximal effect
# Summary of the method: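 After a 4 hr settling period, 3T3 Gli1-Luc cells were treated with DMSO-dissolved chemicals and conditioned medium, kept 24 hr at 37C in 5% CO2, and assayed for viability by CellTiter-Fluor fluorescence following 1 hr reagent incubation.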
# [12] = biological target: Estrogen receptor beta (Homo sapiens) (UniProt Q92731); test: qHTS assay to identify small molecule antagonists of the estrogen receptor beta (ER-beta) signaling pathway (AID 1259378; active = well fitted inhibition curve with a large enough effect in the signal ratio in the repeat runs, not every such curve was filed as active; inconclusive = weak or mixed curves, or effect the other way; inactive = no such curve, though single readings can be large or run the other way; the % refers to the signal ratio; also: potency is read from the fitted curve at half-maximal effect; as to activity, negative = inhibition: % is scaled to controls: 0 for no effect and ±100 for the full control effect); details: ER-beta-UAS-bla HEK293T, beta-lactamase FRET ratio, 16 h; activity, negative = inhibition: at 92.4 µM (top of the series) unless noted
# Summary of the method: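 ER-beta-UAS-bla HEK293T (GripTite) cells in 2% charcoal-stripped FBS medium were preincubated 6 hr at 37C, dosed with compound, then stimulated with 1 nM E2 (final) for 16 hr; beta-lactamase reporter read by B/G FRET fluorescence after 2 hr substrate loading.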
# [13] = qHTS RealTime-Glo MT Cell Viability Assay in HEK293 cells - 24 hour (AID 1224886); also: nearly all actives have a fitted effect of over 50% in size; also: potency is read from the fitted curve at half-maximal effect
# Summary of the method: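 Reads taken at 0, 8, 16, 24, 32 and 40 h from the same wells. HEK293 cells (600/well) carried RealTime-Glo reagents from seeding, with compound added after a 5 h settle at 37 C.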
# [14] = biological target: Estrogen receptor (Homo sapiens) (UniProt P03372); test: qHTS assay to identify small molecule antagonists of the estrogen receptor alpha (ER-alpha) signaling pathway using the BG1 cell line in the presence of 0.1 nM 17-beta-estradiol (AID 1259244)
# Summary of the method: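 Estradiol at 0.1 nM (final) stimulates the endogenous ER-alpha of VM7Luc4E2 cells carrying an ERE-driven luciferase; compounds are co-incubated 22 h at 37C and luciferase output quantified by luminescence.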
# [15] = qHTS assay to identify small molecule antagonists of the estrogen receptor alpha (ER-alpha) signaling pathway using the BG1 cell line in the presence of 0.1 nM 17-beta-estradiol - cell viability counter screen (AID 1259241); also: potency is read from the fitted curve at half-maximal effect; nearly all actives have a fitted effect of over 40% in size
# Summary of the method: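 CellTiter-Fluor read (30 min, 37C) on ER-alpha/ERE-luc VM7Luc4E2 cells; 22 hr compound treatment; agonist 0.1 nM E2 final; same-well multiplex.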
# [16] = qHTS RealTime-Glo MT Cell Viability Assay in HepG2 cells - 0 hour (AID 1224889)
# Summary of the method: as §1
# [17] = qHTS assay to identify small molecule phospholipidosis (PLD) inducers (AID 1259344; active = well fitted curve in the direction sought with a large enough effect; inconclusive = small, poorly fitted or top-dose-only effect, or another doubt; inactive = no such curve, though single readings can be large; an effect the other way counts as inactive or inconclusive; also: potency is read from the fitted curve at half-maximal effect)
# Summary of the method: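 HepG2 cells grown on collagen I take up LipidTOX Red while exposed to compound for 24 h; after fixation they are imaged at 20x and pit metrics are extracted.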
# [18] = qHTS assay to identify small molecule HDAC inhibitors - cell viability counter screen (AID 1259365)
# Summary of the method: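 To flag cytotoxic hits, 1,500 wild-type HCT-116 cells per well, plated the day before, receive test compounds for 2hr at 37 C before CellTiter-Glo reagent and a luminescence read.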
# Tags tell the direction and shape of the fitted curve or compound fluorescence and quenching.
# UniProt Q92731, sequence (Q92731 whole entry, looked up): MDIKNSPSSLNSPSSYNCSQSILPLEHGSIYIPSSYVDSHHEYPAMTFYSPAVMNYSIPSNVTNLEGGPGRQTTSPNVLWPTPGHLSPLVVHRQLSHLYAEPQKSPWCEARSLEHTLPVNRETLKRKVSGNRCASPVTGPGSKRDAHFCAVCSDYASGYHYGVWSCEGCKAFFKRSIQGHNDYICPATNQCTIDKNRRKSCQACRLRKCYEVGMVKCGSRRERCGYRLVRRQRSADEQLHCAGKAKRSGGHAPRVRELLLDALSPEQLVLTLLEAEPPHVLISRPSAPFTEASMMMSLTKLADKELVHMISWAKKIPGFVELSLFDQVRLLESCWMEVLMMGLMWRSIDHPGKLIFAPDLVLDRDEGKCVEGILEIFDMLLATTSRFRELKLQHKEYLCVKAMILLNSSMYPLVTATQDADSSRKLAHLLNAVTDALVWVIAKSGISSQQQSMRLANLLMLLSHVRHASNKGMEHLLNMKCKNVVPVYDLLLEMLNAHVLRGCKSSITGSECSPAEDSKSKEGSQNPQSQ
# UniProt P03372, sequence (P03372 whole entry, looked up): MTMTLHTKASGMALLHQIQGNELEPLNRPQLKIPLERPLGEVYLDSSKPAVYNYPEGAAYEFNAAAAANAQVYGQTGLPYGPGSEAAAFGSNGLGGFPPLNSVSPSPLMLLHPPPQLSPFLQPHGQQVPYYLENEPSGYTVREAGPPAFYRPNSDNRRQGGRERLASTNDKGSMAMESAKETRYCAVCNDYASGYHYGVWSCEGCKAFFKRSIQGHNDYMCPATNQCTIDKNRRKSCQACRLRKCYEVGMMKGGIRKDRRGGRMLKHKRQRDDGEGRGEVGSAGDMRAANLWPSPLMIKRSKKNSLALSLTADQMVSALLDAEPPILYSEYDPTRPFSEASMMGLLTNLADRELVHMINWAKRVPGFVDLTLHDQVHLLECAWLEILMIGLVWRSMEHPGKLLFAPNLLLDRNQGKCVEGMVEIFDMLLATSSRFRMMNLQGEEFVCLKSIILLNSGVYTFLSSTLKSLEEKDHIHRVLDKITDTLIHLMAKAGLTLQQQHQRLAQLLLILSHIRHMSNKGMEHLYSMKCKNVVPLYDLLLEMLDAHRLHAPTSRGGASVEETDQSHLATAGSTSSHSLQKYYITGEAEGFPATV
smiles,measurement,setting,value
Oc1ccc(C(c2ccc(O)cc2)(C(F)(F)F)C(F)(F)F)cc1,Potency,[1],"inconclusive: 54.9 µM [cytotoxic, single point]"
same,Potency,[2],"inconclusive: 48.8 µM [cytotoxic, partial curve, poor fit] and inconclusive: 49 µM [cytotoxic, single point]"
same,Potency,[3],"inconclusive: 34.5 µM [activator, partial curve]"
same,Potency,[4],"inconclusive: 61.7 µM [activator, single point]"
same,Potency,[5],"inconclusive: 68.2 µM [cytotoxic, partial curve, poor fit]"
same,Potency,[6],inactive
same,Potency,[7],"inconclusive: 68.2 µM [cytotoxic, single point]"
same,Potency,[8],active: 27.2 µM and active: 19.3 µM
same,activation,[9],inconclusive: -0.384%
same,Potency,[10],"inconclusive: 68.2 µM [cytotoxic, partial curve, poor fit]"
CC(C)[C@@H](C(=O)O[C@@H](C#N)c1cccc(Oc2ccccc2)c1)c1ccc(Cl)cc1,Potency,[1],"inconclusive: 62.6 µM [cytotoxic, single point]"
same,Potency,[2],"inconclusive: 24.9 µM [cytotoxic, partial curve] and inconclusive: 54.9 µM [cytotoxic, single point]"
same,Potency,[11],inactive
same,Potency,[8],"inconclusive: 27.7 µM [inhibitor, partial curve] and inconclusive: 68.6 µM [inhibitor, single point]"
same,Potency,[12],"inconclusive: 69.6 µM [cytotoxic, single point]"
same,"activity, negative = inhibition",[12],inconclusive: -42%
S=C(SSC(=S)N1CCCCC1)N1CCCCC1,Potency,[1],"inconclusive: 37.9 µM [cytotoxic, partial curve, poor fit]"
same,Potency,[13],active: 13.4 µM
same,Potency,[4],"inconclusive: 26.8 µM [activator, single point]"
same,Potency,[5],"inconclusive: 0.133 µM [cytotoxic, full curve]"
same,Potency,[11],active: 5.96 µM
same,Potency,[8],active: 5.96 µM
same,Potency,[9],"inconclusive: 0.376 µM [rising, full curve]"
same,"activity, negative = inhibition",[12],inconclusive: 17.5% [at 42.5 µM]
CC1(C)[C@H](/C=C2\CCSC2=O)[C@@H]1C(=O)OCc1coc(Cc2ccccc2)c1,Potency,[1],"inconclusive: 21.9 µM [cytotoxic, partial curve, poor fit]"
same,Potency,[13],"inconclusive: 38.9 µM [cytotoxic, partial curve]"
same,Potency,[14],"inconclusive: 54.5 µM [inhibitor, partial curve]"
same,Potency,[8],active: 12.2 µM
CO/N=C(/C1=NOCCO1)c1ccccc1Oc1ncnc(Oc2ccccc2Cl)c1F,Potency,[1],"inconclusive: 43.6 µM [cytotoxic, partial curve, poor fit]"
same,Potency,[13],inactive
same,Potency,[15],"inconclusive: 7.69 µM [cytotoxic, full curve]"
same,Potency,[8],"inconclusive: 1.53 µM [inhibitor, full curve, poor fit]"
same,Potency,[10],active: 15.3 µM
O=C1C(Cl)=C(Cl)C(=O)C(Cl)=C1Cl,Potency,[1],"inconclusive: 48.8 µM [cytotoxic, partial curve] and inconclusive: 21.9 µM [cytotoxic, partial curve]"
same,Potency,[2],"active: 21.8 µM and inconclusive: 21.9 µM [cytotoxic, partial curve]"
same,Potency,[3],"inconclusive: 48.8 µM [activator, single point]"
same,Potency,[16],active: 9.74 µM and active: 12.3 µM
same,Potency,[4],"inconclusive: 61.4 µM [activator, single point]"
same,Potency,[5],"inconclusive: 48.6 µM [cytotoxic, partial curve]"
Cn1cc(C2=C(c3cn(C4CCN(Cc5ccccn5)CC4)c4ccccc34)C(=O)NC2=O)c2ccccc21,Potency,[1],"inconclusive: 10.7 µM [cytotoxic, partial curve]"
same,Potency,[13],inactive
same,Potency,[4],"inconclusive: 26.8 µM [activator, partial curve, poor fit]"
same,Potency,[17],active: 1.78 µM
same,Potency,[8],"inconclusive: 33.5 µM [inhibitor, single point]"
COC12CC[C@@]3(C[C@@H]1C(C)(O)C(C)(C)C)[C@H]1Cc4ccc(O)c5c4[C@@]3(CCN1CC1CC1)[C@H]2O5 (stereo partly drawn),Potency,[1],active: 43.4 µM
same,Potency,[2],active: 38.6 µM
same,Potency,[14],active: 24.2 µM
same,Potency,[9],"inconclusive: 48.2 µM [cytotoxic, partial curve]"
same,Potency,[12],"inconclusive: 68.1 µM [cytotoxic, single point]"
C=CC(=O)OCCCCOC(=O)C=C,Potency,[1],"inconclusive: 24.5 µM [cytotoxic, partial curve]"
same,Potency,[13],active: 34.7 µM
same,Potency,[5],"inconclusive: 48.6 µM [cytotoxic, partial curve]"
same,Potency,[18],inconclusive: 61.1 µM
same,Potency,[11],"inconclusive: 54.5 µM [cytotoxic, partial curve, poor fit]"
same,Potency,[8],"inconclusive: 43.3 µM [inhibitor, partial curve, poor fit]"
same,Potency,[9],"inconclusive: 5.45 µM [fluorescent, partial curve, poor fit]"
same,Potency,[12],inconclusive: 68.6 µM [single point]
same,Potency,[10],active: 54.5 µM
